Measurements published in PubChem BioAssay AID1345083 (National Center for Advancing Translational Sciences (NCATS), 2018).
The whole screen tested about 94,000 compounds, of which about 6,200 (6.6%) were called active. Inconclusive results, whose numbers are uncertain, are shown with a selection of clear calls. The call rests on the fitted dose curve; in most records, active means well fitted inhibition curve with a large enough effect; inconclusive means small, poorly fitted or top-dose-only effect; inactive means flat fitted curve, though single readings scatter. A potency beside an inconclusive call is a rough fit, not a confirmed value.

Assay: Cytotoxic Profiling in HEK 293 Cell Line of Diverse Libraries Using Quantitative High-Throughput Screening; further: nearly all actives have a fitted effect of over 60% in size
Details: HEK 293 viability, ATP luminescence (CellTiter-Glo), 48-72 h; activity change, negative = cytotoxicity: at 115 µM (top of the series) unless noted; series mostly up to 115 µM
How it was run: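 ATP-coupled CellTiter-Glo luminescence served as viability read-out, recorded 10 min after reagent addition at room temperature. HEK 293 cells, 250 cells/well, had been incubated with pintool-transferred compound for 48 or 72 hr at 37 degree Celsius.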
On the % scale 0 is the no-effect control and ±100 the full control effect; potency means the concentration at half of the fitted maximal effect; tags describe the fitted curve by direction and shape.

Structure (SMILES) | Potency | activity change, negative = cytotoxicity | outcome
O=C(c1ccc(Br)o1)N1CCCN(c2cc(-c3ccc(F)cc3)[nH]n2)CC1 | inconclusive: 50.1 µM [inhibitor, partial curve, poor fit] | – | –
Cc1ccc(NC(=O)CN2C(=O)NC3(CCC(C)CC3)C2=O)cc1C (stereo unspecified) | inconclusive: 39.8 µM [inhibitor, partial curve, poor fit] | – | –
OCC(Cc1ccco1)Cn1ccnc1-c1ccccn1 (stereo unspecified) | inconclusive: 56.2 µM [inhibitor, partial curve, poor fit] | – | –
O=C(c1cc(Cl)ccc1F)N1CCN(c2cc(-c3cccs3)[nH]n2)CC1 | inconclusive: 56.2 µM [inhibitor, partial curve, poor fit] | – | –
COc1ccc(-c2ccc3ncc(Nc4ccc(CCO)cc4)n3n2)cn1 | inconclusive: 79.4 µM [inhibitor, partial curve, poor fit] | – | –
COc1ccc(CN2C=C(C(=O)OCc3noc(CC4CCCCC4)n3)C(C)=NS2(=O)=O)cc1 | inconclusive: 17.8 µM [inhibitor, full curve] | – | –
COCCC1(NS(C)(=O)=O)CCN(C(=O)c2ccc(C#N)cc2)CC1 | – | inactive: 1.21% | –
COc1ccccc1CNC(=O)c1cc2n(n1)CC(c1ccc(Cl)cc1)OC2 (stereo unspecified) | active: 39.8 µM | – | –
O=C(c1ccc(F)c(F)c1)N1CCC2(CC1)N=C(c1ccc(Cl)cc1)NO2 | inconclusive: 79.4 µM [inhibitor, single point] | – | –
O=C(NCc1cccc(F)c1)C1CCCN1C(=O)c1cccc(-c2cccnc2)c1 (stereo unspecified) | inconclusive: 56.2 µM [inhibitor, partial curve, poor fit] | – | –
O=C(c1ccncn1)N1CCC(Oc2cnc3c(ccn3-c3cncnc3)c2)CC1 | inconclusive: 89.1 µM [inhibitor, partial curve, poor fit] | – | –
OCC1(CC2CC2)CCCN(c2nc(-c3ccccc3)no2)C1 (stereo unspecified) | inconclusive: 56.2 µM [inhibitor, partial curve, poor fit] | – | –
O=C(Cc1cccc(F)c1)NC1CCN(c2cc(-c3ccc(F)cc3)[nH]n2)C1 (stereo unspecified) | inconclusive: 50.1 µM [inhibitor, partial curve, poor fit] | – | –
Cc1noc([C@@H]2CNC[C@H]2C(=O)N(C)Cc2ccc(N3CCOCC3)cc2)n1 | inconclusive: 100 µM [inhibitor, single point] | – | –
CCc1ccccc1S(=O)(=O)N1CCC(n2cnnc2C2CC2)CC1 | – | inactive: -0.837% | –
CC1CCCN1C(=O)c1cc(-c2ccc(C(F)(F)F)cc2)nc2c1cnn2C (stereo unspecified) | inconclusive: 50.1 µM [inhibitor, partial curve, poor fit] | – | –
Cc1noc(C)c1Cn1cc2c3c(cccc31)[C@H](CC(C)C)N[C@H](C(=O)NCCN(C)C)C2 | inconclusive: 56.2 µM [inhibitor, partial curve, poor fit] | – | –
COc1ccccc1-c1nc(C2CC(=O)N(C3CCCCC3)C2)no1 (stereo unspecified) | inconclusive: 79.4 µM [inhibitor, partial curve] | – | –
Cc1ccsc1-c1nc(CN(C)Cc2noc(C(C)C)n2)c(C)o1 | inconclusive: 35.5 µM [inhibitor, partial curve] | – | –
COc1ccccc1Nc1ccnc(N2CCC(NC(=O)c3ccc(Cl)nc3)CC2)n1 | inconclusive: 89.1 µM [inhibitor, single point] | – | –
Cc1ccccc1-c1onc(C)c1C(=O)NCc1ccc(Cl)cc1 | inconclusive: 56.2 µM [inhibitor, partial curve, poor fit] | – | –

Structure (SMILES) | Potency | activity change, negative = cytotoxicity | outcome
CC(=O)N1CC(CN2C(=O)c3c(c(C)nn3-c3ccccc3)C2C)C1 (stereo unspecified) | inconclusive: 79.4 µM [inhibitor, single point] | – | –
COc1ccc(C(=O)N2CCC(N3CC4CC(C3)[C@H]3CCCC(=O)N3C4)CC2)cc1F (stereo partly specified) | – | inactive: 7.05% | –
COCCOC1CCN(C(=O)Nc2ccc(OC)cc2)CC1 | – | inactive: 0.622% | –
COc1ccc(-n2nc(C3CCCN(C(=O)c4ccccc4C)C3)[nH]c2=O)cc1 (stereo unspecified) | inconclusive: 44.7 µM [inhibitor, partial curve] | – | –
NS(=O)(=O)c1ccc(CCNC(=O)c2cc3n(n2)CC(c2ccc(Cl)cc2)OC3)cc1 (stereo unspecified) | active: 44.7 µM | – | –
CC(=O)N1CCN(c2nc3c(s2)CC(C(=O)NC2CCCCC2)CC3)CC1 (stereo unspecified) | inconclusive: 89.1 µM [inhibitor, single point] | – | –
O=C(C1CCCN(c2cnn(Cc3ccccc3)c(=O)c2)C1)N1CCN(C2CCCCC2)CC1 (stereo unspecified) | inconclusive: 44.7 µM [inhibitor, full curve, poor fit] | – | –
COc1cccc(-c2nc(N3CCOCC3)cc3c2CN(C)C3=O)c1 | inconclusive: 20 µM [inhibitor, full curve, poor fit] | – | –
Cc1ccc([S+](=O)([O-])NC2CCN(Cc3cccc(-c4cccc(C)c4)c3)CC2)cc1 | active: 25.1 µM | – | –
O=C(N[C@@H]1CN(C(=O)Nc2cccc(C(F)(F)F)c2)CCC[C@H]1O)c1ccc(OCc2ccccc2)cc1 | active: 31.6 µM | – | –
COC1CCN(CC2CCCCCN2C(=O)c2ccccc2F)CC1 (stereo unspecified) | – | inactive: -2.56% | –
CN(Cc1cn(-c2ccccc2)nn1)Cc1nccn1Cc1ccccc1 | inconclusive: 79.4 µM [inhibitor, partial curve, poor fit] | – | –
CC1(CCCCc2ccccc2)COc2ccc(C(=O)NCCN3CCOCC3)cc2N1 (stereo unspecified) | active: 89.1 µM | – | –
COc1ccccc1-c1cnc(NC(=O)c2ccc(Cl)cc2)c2c1CCO2 | active: 63.1 µM | – | –
O=C1NC(=NC2CCCCC2)C2(CCN(Cc3ccsc3)C2)N1c1cc(F)cc(F)c1 (stereo unspecified) | inconclusive: 20 µM [inhibitor, full curve, poor fit] | – | –
Cc1nc2cccnc2n1CC1CCCN(S(=O)(=O)c2ccc3c(c2)CCCC3)C1 (stereo unspecified) | inconclusive: 56.2 µM [inhibitor, partial curve, poor fit] | – | –
O=c1c2c3c(nn2ccn1Cc1cccc(C(F)(F)F)c1)CCCC3 | inconclusive: 39.8 µM [inhibitor, partial curve, poor fit] | – | –
CC1(C)[C@H](Cc2cc(CN3CCCCC3)on2)C[C@@H]1NC(=O)c1ccco1 | inconclusive: 79.4 µM [inhibitor, partial curve, poor fit] | – | –
CN(Cc1ccccc1)c1ncnc2c1CCN(C(=O)[C@@H](N)CO)CC2 | inconclusive: 35.5 µM [inhibitor, full curve] | – | –
OC[C@@H]1CNC[C@H]1C1CCN(Cc2ccc(Cl)c(F)c2)CC1 | active: 39.8 µM | – | –
O=C(NCCc1ccccc1)N1CCC(c2noc(-c3ccccn3)n2)C1 (stereo unspecified) | inconclusive: 89.1 µM [inhibitor, single point] | – | –

Structure (SMILES) | Potency | activity change, negative = cytotoxicity | outcome
Clc1ccc(CN2CCC3(CC2)CC(c2ccccc2)=NO3)cc1 | inconclusive: 39.8 µM [inhibitor, single point] | – | –
Cc1nn2c(c1-c1ccccc1-c1ccccc1)N(C(=O)Cc1ccc3c(c1)OCO3)CCC2 | inconclusive: 79.4 µM [inhibitor, partial curve, poor fit] | – | –
O=C(NC1CCCN(c2ccnc3ccnn23)C1)c1ccc(Cl)nc1 (stereo unspecified) | inconclusive: 39.8 µM [inhibitor, full curve] | – | –
N#Cc1cccnc1N1CCN(Cc2ccccc2F)C(CCO)C1 (stereo unspecified) | inconclusive: 50.1 µM [inhibitor, partial curve, poor fit] | – | –
Cc1cc(C)cc(N2CCN(c3cc(C4CC(O)C4)nc(C)n3)CC2=O)c1 (stereo unspecified) | – | inactive: -12.3% | –
CCC1(N2CCN(C(=O)c3ccncc3)CC2)CCN(CCC(C)C)C1 (stereo unspecified) | – | inactive: -5.95% | –
Cc1ccc(Nc2ccnc(N3CCCC(C(=O)NCC(F)(F)F)C3)n2)cc1 (stereo unspecified) | inconclusive: 35.5 µM [inhibitor, partial curve, poor fit] | – | –
Oc1ccccc1CN1CCC(O)(c2csc(CN3CCN(c4ccccn4)CC3)n2)CC1 | inconclusive: 50.1 µM [inhibitor, partial curve, poor fit] | – | –
COc1nccc(N2CCC(CC(=O)N3CCCC3)CC2)n1 | inconclusive: 56.2 µM [inhibitor, partial curve, poor fit] | – | –
COCCN1Cc2ccc(NCc3ccccc3)nc2C(C)(C(=O)Nc2ccc(F)cc2)C1 (stereo unspecified) | inconclusive: 31.6 µM [inhibitor, full curve, poor fit] | – | –
O=C(Cc1cccc(F)c1)N1CCCN(c2cc(-c3ccc(Cl)cc3)[nH]n2)CC1 | inconclusive: 50.1 µM [inhibitor, partial curve, poor fit] | – | –
COc1ccc(Nc2ccc3nnc(-c4ccc(C)cn4)n3n2)cc1 | active: 70.8 µM | – | –
COc1ccc(CC(=O)N2CCCC(C(=O)N3CCC(c4ccccc4)CC3)C2)cc1 (stereo unspecified) | inconclusive: 50.1 µM [inhibitor, partial curve, poor fit] | – | –
O=C1CC2(CCN(C(=O)c3ccccc3)CC2)Oc2cc(Cl)ccc21 | inconclusive: 50.1 µM [inhibitor, partial curve, poor fit] | – | –
COc1cccc(-c2noc(CC3CCN(C(=O)c4ccccc4C)CC3)n2)c1 | inconclusive: 50.1 µM [inhibitor, partial curve, poor fit] | – | –
O=c1c2nc(-c3ccccc3)ccc2ncn1Cc1ccccc1 | inconclusive: 100 µM [inhibitor, partial curve, poor fit] | – | –
CC1CCC2(CC1)NC(=O)N(CC(=O)Nc1ccc(Cl)cc1C(F)(F)F)C2=O (stereo unspecified) | inconclusive: 39.8 µM [inhibitor, partial curve, poor fit] | – | –
COCCNC(=O)c1ccc2nnc(C3CCOCC3)n2c1 | – | – | inactive [at 172 µM]
COc1ccccc1CNC(=O)c1noc(-c2ccc3c(c2)OCO3)n1 | inconclusive: 50.1 µM [inhibitor, partial curve, poor fit] | – | –
